Screen size: about 94,000 compounds; about 6,200 (6.6%) were called active. Inconclusive means that the source gave no clear call. Such entries were picked first, then a sample of the others. Calls come from the whole dose curve; as a rule, active = well fitted inhibition curve with a large enough effect; inconclusive = small, poorly fitted or top-dose-only effect; inactive = flat fitted curve, though single readings scatter. Potencies of inconclusive entries are doubtful fits and often do not repeat.
experiment: Cytotoxic Profiling in HEK 293 Cell Line of Diverse Libraries Using Quantitative High-Throughput Screening; details: HEK 293 viability, ATP luminescence (CellTiter-Glo), 48-72 h; activity change, negative = cytotoxicity: at 115 µM (top of the series) unless noted; series mostly up to 115 µM; note: nearly all actives have a fitted effect of over 60% in size
Procedure, shortened: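 HEK 293 seeded at 250 cells/well receive compound via pintool. After 48 or 72 hr at 37 degree Celsius, 5% CO2 and 95% humidity, CellTiter-Glo is dispensed and luminescence read following 10 min at room temperature.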
% is set by controls: 0 for no effect and ±100 for the full control effect; potency is the fitted concentration of half-maximal effect; tags give direction and shape of the fitted curve.

Row | Compound | Potency | activity change, negative = cytotoxicity
1 | CCc1nc(C)c(C(=O)N2CCC3(CCCN(Cc4cccc(C)c4)C3)C2)o1 (stereo not drawn) | inconclusive: 50.1 µM [inhibitor, partial curve, poor fit] | –
2 | O=C(NC1CCN(Cc2ccc(-c3ccsc3)cc2)C1)c1ccc(F)cc1 (stereo not drawn) | inconclusive: 44.7 µM [inhibitor, full curve, poor fit] | –
3 | O=C(C1CCN(C(=O)N2CC3CC(C2)[C@H]2CCCC(=O)N2C3)CC1)N1CCc2ccccc2C1 (stereo partly drawn) | – | inactive: -9.22%
4 | COc1cccc(C(C)N(C)Cc2nc(-c3cccs3)no2)c1 (stereo not drawn) | inconclusive: 20 µM [inhibitor, full curve, poor fit] | –
5 | CC(=O)N1CCC(C2CCN(S(=O)(=O)c3ccc(C#N)cc3)C2)CC1 (stereo not drawn) | inconclusive: 35.5 µM [inhibitor, partial curve, poor fit] | –
6 | O=c1c2nc(-c3ccc(F)cc3)ccc2ncn1Cc1ccccn1 | – | inactive: -16.4% [at 172 µM]
7 | CCNC(=O)N1CC(C(=O)NCc2ccco2)CC(c2ccc(OC)c(OC)c2)C1 (stereo not drawn) | inconclusive: 56.2 µM [inhibitor, partial curve, poor fit] | –
8 | O=C1[C@@H]2C[C@@H](CN2Cc2nccs2)Oc2ccccc2N1CC1CC1 | inconclusive: 112 µM [inhibitor, single point] | –
9 | CCN1C(=O)Cc2cc(C(=O)NCc3cc(OC)ccc3OC)ccc21 | – | inactive: -17.2%
10 | CC(C)CCN(C1CCOCC1)C1CCN(Cc2cccnc2)CC1 | – | inactive: -1.9%
11 | COc1ccc(C(=O)N2CCC3(CC2)NC(=O)N(Cc2ccc(F)cc2)C3=O)cc1F | inconclusive: 50.1 µM [inhibitor, partial curve] | –
12 | CCOc1ccc(CC(=O)NCCn2ccn3nc(-c4cccc(OC)c4)cc3c2=O)cc1 | inconclusive: 50.1 µM [inhibitor, partial curve, poor fit] | –
13 | O=C(NCCN1CCCCC1)c1ccc(-c2ccc(N3CCCCC3)nc2)cc1 | inconclusive: 35.5 µM [inhibitor, full curve, poor fit] | –
14 | COc1cc(F)ccc1-c1ccnc2nc(CC(C)C)nn12 | – | inactive: -26.1%
15 | CC(C)n1cnnc1CC1CCCN(S(=O)(=O)c2ccc3c(c2)C(C)(C)C(=O)N3)C1 (stereo not drawn) | – | inactive: 2.48%
16 | CNC(=O)[C@H]1C[C@]2(CCCCN(C)C2=O)N(C(=O)c2ccc(NC(C)=O)cc2)[C@H]1c1ccco1 | – | inactive: -16%
17 | COc1cc(OC)cc(-c2onc(C)c2C(=O)NCCCSC)c1 | inconclusive: 44.7 µM [inhibitor, partial curve, poor fit] | –
18 | COc1ccc(-c2ccc3ncc(Nc4ccc(C(N)=O)cc4)n3n2)cn1 | inconclusive: 89.1 µM [inhibitor, partial curve, poor fit] | –
19 | CNC(=O)N1CCC(C2CCN(C(=O)c3ccc(Br)cc3)C2)CC1 (stereo not drawn) | – | inactive: -27.2%
20 | O=C(Nc1cc(C2CC2)nn1-c1ccccc1)c1cccc(Cl)c1 | inconclusive: 126 µM [inhibitor, single point] | –
21 | COc1ccc(-c2ccc3nc(-c4cccc(F)c4)oc3c2)c(OC)c1OC | inconclusive: 89.1 µM [inhibitor, single point] | –
22 | CCc1nc2c(c(-c3ccc(OC)cc3)n1)CCN(C(=O)c1ccccc1)CC2 | – | inactive: -10.4%

Row | Compound | Potency | activity change, negative = cytotoxicity
23 | COCCCn1c(C)cc(C(=O)N[C@@H]2CN(C)C[C@H]2CN(C)C)c1C | – | inactive: 3.22%
24 | O=C(OCc1ccccc1)N1CCC(Oc2cnc3c(ccn3-c3cncnc3)c2)CC1 | active: 79.4 µM | –
25 | COc1ccc(-c2nc(-c3c(C)noc3C)cc3cc(C(C)C)oc23)cn1 | inconclusive: 89.1 µM [inhibitor, partial curve] | –
26 | CN(CCC(N)=O)Cc1ccccc1OCC(O)CN1CCc2ccccc2C1 (stereo not drawn) | – | inactive: -10.1%
27 | Cc1ccc(C(=O)N[C@H]2CO[C@H]3[C@@H]2OC[C@@H]3Nc2nccc(-c3ccc4c(c3)OCO4)n2)cc1 | inconclusive: 56.2 µM [inhibitor, partial curve, poor fit] | –
28 | O=C(O)Cn1ccc2cc(OCc3cccc(-c4ccccc4O)c3)cnc21 | – | inactive: -2.98% [at 172 µM]
29 | C[S+](=O)([O-])N1CCC(Cn2ccc3c(N4CCOCC4)nc(-c4ccccc4F)cc32)CC1 | inconclusive: 35.5 µM [inhibitor, full curve, poor fit] | –
30 | CC(C)c1noc(-c2cn(C3CCCN(C(=O)c4cccc(N(C)C)c4)C3)nn2)n1 (stereo not drawn) | inconclusive: 79.4 µM [inhibitor, single point] | –
31 | Cn1ncc2c(C(=O)Nc3ccc(Cl)cc3)cc(-c3ccccc3C(F)(F)F)nc21 | inconclusive: 22.4 µM [inhibitor, full curve, poor fit] | –
32 | CNC(=O)CN(C)C(=O)[C@@H]1CN(c2ncccn2)C[C@H]1COC | – | inactive: -1.47%
33 | Cc1nn(C)c(C)c1-c1ccnc(NCC2COc3ccccc3O2)n1 (stereo not drawn) | inconclusive: 50.1 µM [inhibitor, partial curve, poor fit] | –
34 | CS(=O)(=O)N1C[C@H]2CCN(C(=O)c3ccc4[nH]ccc4c3)C[C@H]21 | – | inactive: 3.66%
35 | O=C(CCC1CCCC1)N1CCC2(CC1)CC(CO)N(C(=O)c1ccccc1)C2 (stereo not drawn) | inconclusive: 50.1 µM [inhibitor, partial curve, poor fit] | –
36 | COCc1ncc(C)n1C1CCCN(C(=O)CCn2nc(C)cc2C)C1 (stereo not drawn) | – | inactive: -4.34%
37 | Cn1cccc1C(=O)N1CCC2(CC1)C(=O)NCN2Cc1ccc(Cl)cc1 | inconclusive: 25.1 µM [inhibitor, full curve] | –
38 | O=C(NC1CCc2ccccc21)c1cc2n(n1)CC(c1ccc(Cl)cc1)OC2 (stereo not drawn) | inconclusive: 50.1 µM [inhibitor, partial curve, poor fit] | –
39 | COc1ccc(-c2cc(N3CCC(NC(=O)c4ccc(F)cc4Cl)CC3)n[nH]2)cc1 | inconclusive: 31.6 µM [inhibitor, partial curve, poor fit] | –
40 | COc1ccc(CCCN2C(=O)O[C@@H]3CN(S(=O)(=O)N4CCCC4)C[C@@H]32)cc1 | inconclusive: 100 µM [inhibitor, single point] | –
41 | O=C1NC2(CCN(Cc3ccccn3)CC2)COc2ccccc21 | – | inactive: -20.6% [at 172 µM]
42 | COc1ccccc1-c1cc(C(=O)NC2CCOC2)c2cnn(C)c2n1 (stereo not drawn) | – | inactive: 3.87% [at 172 µM]
43 | O=C(CNC(=O)c1ccc(-c2cccc(C(F)(F)F)c2)cc1)NCc1cccc(F)c1 | – | inactive: -29%
